A collection of fitness landscapes (doi:10.1016/j.celrep.2020.107928)
Over roughly 81,000 sequences, “one-hybrid fitness for binding NBS DNA” has its median near -0.1; the highest 2% begin near 0.36. This is one part of the list.

B1: Caulobacter ParB omega fusion; a variant is named by its letters at X, in order, B8GW30 (parent)
chain: MESVVVGEPGMSEGRRGLGRGLSALLGEVDAAPAQAPGEQLGGSREAPIEILQRNPDQPRRTFREEDLEDLSNSIREKGVLQPILVRPSPDTAGEYQIVAGERAWRAAQRAGLKTVPIMVRELDDLAVLEIGIIENVQRADLNVLEEALSYKVLMEKFERTQENIAQTIGKSXSHVANXMRLLXLPDEVQSYLVSGELTAXHARAIAAAADPVALAKQIIEGGLSVRETEALARKAPNLSAGKSKGGRPPRVKDTDTQALESDLSSVLGLDVSIDHRGSTGTLTITYATLEQLDDLCNRLTRGI

Variants of: B1
Test: one-hybrid fitness for binding NBS DNA (the Noc-binding site; scaled: cognate 1, non-cognate 0); higher = stronger binding
Settings: with NBS DNA site
How it was run: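 Pre- and post-selection plasmids were Illumina-sequenced, three replicate libraries were pooled, and any variant with under 10 reads was removed. The libraries were Caulobacter ParB with four specificity codons randomised, selected in E. coli USO through a HIS3 reporter whose site is 19 bp from the promoter. Cells grew 48 hours at 37°C on M9 without histidine, with 0.1 mM IPTG and 5 mM 3-AT. Fitness is the log change in variant-to-wild-type read ratio, rescaled against cognate and non-cognate.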

Variant	one-hybrid fitness for binding NBS DNA
GQDS	≤ 0.2
RYEI	≤ 0.2
VKAS	≤ 0.2
TKDA	≤ 0.2
NPTN	≤ 0.2
RIPD	≤ 0.2
CWVC	≤ 0.2
PRYT	≤ 0.2
HVIG	≤ 0.2
GNAF	≤ 0.2
HTLM	≤ 0.2
ELME	≤ 0.2
QQKY	0.63
RQNI	≤ 0.2
HWTV	≤ 0.2
VSKL	≤ 0.2
RPPI	≤ 0.2
SPWC	≤ 0.2
ASFM	≤ 0.2
ECAG	≤ 0.2
YACR	≤ 0.2
QKLS	0.392
RVKS	0.578
RFTG	≤ 0.2
LALY	≤ 0.2

Variant	one-hybrid fitness for binding NBS DNA
WYWI	≤ 0.2
AMDC	≤ 0.2
EDSG	≤ 0.2
DLAF	≤ 0.2
QVHG	≤ 0.2
QLNH	0.242
DMQG	≤ 0.2
NMCS	≤ 0.2
RTLE	≤ 0.2
VLQI	≤ 0.2
SASN	≤ 0.2
PLVV	≤ 0.2
RWNY	≤ 0.2
EIRS	≤ 0.2
NENC	≤ 0.2
MYNL	≤ 0.2
AGYT	≤ 0.2
KNAR	≤ 0.2
TLMT	≤ 0.2
YMWN	≤ 0.2
QYVF	≤ 0.2
HDAC	≤ 0.2
NGAV	≤ 0.2
GNPG	≤ 0.2
QQFI	≤ 0.2

Variant	one-hybrid fitness for binding NBS DNA
GLVP	≤ 0.2
RSCD	≤ 0.2
RARW	≤ 0.2
VAIA	≤ 0.2
SVTP	≤ 0.2
PARC	≤ 0.2
QSCR	0.493
EMQR	≤ 0.2
CYST	≤ 0.2
ATLN	≤ 0.2
WIIC	≤ 0.2
SHQT	≤ 0.2
PPAI	≤ 0.2
TATQ	≤ 0.2
CQQR	≤ 0.2
ADQC	≤ 0.2
NRYA	≤ 0.2
CNCY	≤ 0.2
DPPY	≤ 0.2
WTWC	≤ 0.2
FQTK	≤ 0.2
LDTI	≤ 0.2
GLFN	≤ 0.2
ESHK	≤ 0.2
EING	≤ 0.2

Variant	one-hybrid fitness for binding NBS DNA
VVER	≤ 0.2
PETN	≤ 0.2
RHYA	≤ 0.2
LPKA	≤ 0.2
PEPR	≤ 0.2
VSET	≤ 0.2
QPAS	≤ 0.2
SADC	≤ 0.2
HVLT	≤ 0.2
EYLC	≤ 0.2
VMWS	≤ 0.2
YTIR	≤ 0.2
RAQD	≤ 0.2
QMRH	0.584
RWAC	≤ 0.2
VHRT	≤ 0.2
YTFS	≤ 0.2
QYPP	≤ 0.2
WMHT	≤ 0.2
QGRT	≤ 0.2
SSDY	≤ 0.2
PGPK	≤ 0.2
IEAL	≤ 0.2
LNYF	≤ 0.2
KRWK	≤ 0.2

Variant	one-hybrid fitness for binding NBS DNA
LIIE	≤ 0.2
SRCF	≤ 0.2
GCLM	≤ 0.2
QLFS	≤ 0.2
VLQW	≤ 0.2
MDYV	≤ 0.2
CANG	≤ 0.2
QRHI	0.358
LFRV	≤ 0.2
DKHC	≤ 0.2
RKLP	≤ 0.2
DNLW	≤ 0.2
ITDT	≤ 0.2
HAID	≤ 0.2
YYAS	≤ 0.2
ALGS	≤ 0.2
NFMS	≤ 0.2
AVDI	≤ 0.2
GLDV	≤ 0.2
ASQM	≤ 0.2
HITP	≤ 0.2
MFNR	≤ 0.2
ISPE	≤ 0.2
YVHY	≤ 0.2
MWRC	≤ 0.2

Variant	one-hybrid fitness for binding NBS DNA
RDTN	≤ 0.2
HHDK	≤ 0.2
NNSC	≤ 0.2
DKNS	≤ 0.2
HLQP	≤ 0.2
SMSW	≤ 0.2
ITSS	≤ 0.2
IFPM	≤ 0.2
GQWC	≤ 0.2
KANA	≤ 0.2
LAVK	≤ 0.2
DSFI	≤ 0.2
GASV	≤ 0.2
DELM	≤ 0.2
FSVV	≤ 0.2
NDMR	≤ 0.2
FGIY	≤ 0.2
ASLN	≤ 0.2
RFIE	≤ 0.2
LLSI	≤ 0.2
IMSC	≤ 0.2
LQSR	≤ 0.2
AHMA	≤ 0.2
QIMM	≤ 0.2
IMAV	≤ 0.2

Variant	one-hybrid fitness for binding NBS DNA
AVPI	≤ 0.2
HMLC	≤ 0.2
WIRR	≤ 0.2
TLIF	≤ 0.2
FWGR	0.22
FNQL	≤ 0.2
RGDV	≤ 0.2
AIRS	≤ 0.2
HYDV	≤ 0.2
PNWG	≤ 0.2
YVQE	≤ 0.2
TGCE	≤ 0.2
EQDS	≤ 0.2
KHQS	≤ 0.2
PQTY	≤ 0.2
RHPH	≤ 0.2
RHQQ	≤ 0.2
VSAL	≤ 0.2
ITLC	≤ 0.2
FRMC	≤ 0.2
SKKY	≤ 0.2
RFMT	≤ 0.2
HDLV	≤ 0.2
PEHS	≤ 0.2
SAWR	≤ 0.2

Variant	one-hybrid fitness for binding NBS DNA
YMMV	≤ 0.2
IKMM	≤ 0.2
IARQ	≤ 0.2
TIMD	≤ 0.2
RKFG	≤ 0.2
INEL	≤ 0.2
LCSI	≤ 0.2
YVKC	≤ 0.2
CCNC	≤ 0.2
RQLV	≤ 0.2
SYDS	≤ 0.2
RAWV	≤ 0.2
RQLK	≤ 0.2
SFLI	≤ 0.2
MYGF	≤ 0.2
RYYF	≤ 0.2
VPHD	≤ 0.2
TYHH	≤ 0.2
SWVD	≤ 0.2
PFSE	≤ 0.2
